Reference: publication PMC9649770
Like-named read-outs stand apart in the source and are kept apart here. No constants are given. Whether binding was seen depends on the method and setting. In cells and extracts the contact can be indirect. Some results given as binding are weak or reduced against the parent protein; the word gives no strength. For some assays here: Tags and fused reporters may be left off the sequences shown. Blank lines part the entries; values can stand above or below the molecule they belong to.

Protein sequences, listed by entry. Tags and fused reporters are not part of them.
UniProt Q14145: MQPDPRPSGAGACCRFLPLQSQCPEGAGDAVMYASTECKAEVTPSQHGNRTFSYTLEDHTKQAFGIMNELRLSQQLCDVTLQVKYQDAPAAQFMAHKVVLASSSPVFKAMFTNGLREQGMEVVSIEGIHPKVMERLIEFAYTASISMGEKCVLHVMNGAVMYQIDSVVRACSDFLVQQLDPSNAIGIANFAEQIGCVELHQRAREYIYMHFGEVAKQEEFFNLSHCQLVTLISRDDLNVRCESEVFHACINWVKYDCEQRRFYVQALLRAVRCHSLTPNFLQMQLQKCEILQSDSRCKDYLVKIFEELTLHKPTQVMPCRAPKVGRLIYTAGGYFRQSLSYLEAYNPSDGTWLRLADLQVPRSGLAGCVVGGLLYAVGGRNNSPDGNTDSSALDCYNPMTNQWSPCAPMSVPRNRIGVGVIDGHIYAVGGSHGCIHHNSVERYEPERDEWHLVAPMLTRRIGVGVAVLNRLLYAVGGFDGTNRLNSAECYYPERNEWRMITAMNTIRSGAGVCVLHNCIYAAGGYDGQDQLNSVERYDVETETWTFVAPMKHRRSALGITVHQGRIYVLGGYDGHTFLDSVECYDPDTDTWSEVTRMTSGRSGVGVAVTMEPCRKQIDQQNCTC

Columns and labels:
[1] = target: T1, N-terminally HA-tagged OTUD1 wild type (human) (UniProt Q5VV17); test: co-IP; HEK 293 cells expressing HA-tagged OTUD1 and Flag-tagged KEAP1 or PRDX4; lysis in 20 mM TRIS pH 7.5, 150 mM NaCl, 0.5% NP40; anti-FLAG M2 or anti-HA agarose, 2 h at 4 °C; elution with FLAG or HA peptide; western blotting
T1 sequence: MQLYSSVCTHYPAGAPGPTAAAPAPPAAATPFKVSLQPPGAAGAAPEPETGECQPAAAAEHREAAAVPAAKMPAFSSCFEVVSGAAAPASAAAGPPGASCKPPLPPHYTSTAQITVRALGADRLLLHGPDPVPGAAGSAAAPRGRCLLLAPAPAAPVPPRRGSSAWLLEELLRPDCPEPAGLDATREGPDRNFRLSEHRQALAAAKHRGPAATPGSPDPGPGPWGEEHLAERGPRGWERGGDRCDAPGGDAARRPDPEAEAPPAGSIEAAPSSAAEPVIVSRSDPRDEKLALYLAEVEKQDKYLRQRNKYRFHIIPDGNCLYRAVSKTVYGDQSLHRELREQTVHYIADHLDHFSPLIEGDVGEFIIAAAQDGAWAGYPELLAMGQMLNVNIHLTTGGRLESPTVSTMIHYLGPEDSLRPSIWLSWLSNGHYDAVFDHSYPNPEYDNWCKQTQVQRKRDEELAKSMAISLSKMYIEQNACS

[2] = target: T2, HA-tagged OTUD1 ΔETGE mutant (human) (UniProt Q5VV17); test: as above
T2 sequence: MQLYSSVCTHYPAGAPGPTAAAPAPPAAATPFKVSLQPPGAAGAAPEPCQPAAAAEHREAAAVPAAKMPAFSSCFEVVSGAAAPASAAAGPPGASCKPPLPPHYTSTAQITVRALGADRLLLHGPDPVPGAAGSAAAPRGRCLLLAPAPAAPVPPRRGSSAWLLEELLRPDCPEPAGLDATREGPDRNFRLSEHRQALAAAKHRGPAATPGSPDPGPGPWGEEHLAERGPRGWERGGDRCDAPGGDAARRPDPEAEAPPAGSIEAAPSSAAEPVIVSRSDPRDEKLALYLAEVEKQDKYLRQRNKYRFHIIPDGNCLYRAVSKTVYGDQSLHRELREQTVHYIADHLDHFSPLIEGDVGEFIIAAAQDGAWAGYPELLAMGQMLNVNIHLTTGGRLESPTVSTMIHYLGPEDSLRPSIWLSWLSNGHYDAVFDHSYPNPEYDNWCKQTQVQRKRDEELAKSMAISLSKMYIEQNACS

[3] = target: T3, Endogenous OTUD1 (human (endogenous in RPMI8226)) (UniProt Q5VV17); test: co-IP; endogenous proteins from RPMI8226 lysate (20 mM TRIS pH 7.5, 150 mM NaCl, 0.5% NP40); anti-OTUD1 rabbit polyclonal sera overnight at 4 °C, Protein A/G PLUS-agarose; western blotting
T3 sequence: T1 sequence

[4] = target: T1, N-terminally HA-tagged OTUD1 wild type (human); test: co-IP; HEK 293 cells expressing HA-tagged OTUD1 and Flag-tagged KEAP1 or PRDX4; lysis in 20 mM TRIS pH 7.5, 150 mM NaCl, 0.5% NP40; anti-FLAG M2 or anti-HA agarose, 2 h at 4 °C; elution with FLAG or HA peptide; western blotting; remark: listed apart in the source
[5] = target: T3, Endogenous OTUD1 (human (endogenous in RPMI8226)); test: co-IP; endogenous proteins from RPMI8226 lysate (20 mM TRIS pH 7.5, 150 mM NaCl, 0.5% NP40); anti-OTUD1 rabbit polyclonal sera overnight at 4 °C, Protein A/G PLUS-agarose; western blotting; remark: listed apart in the source

Molecule: Flag-tagged KEAP1 (from UniProt Q14145 1-624)
binding [1]: binds
binding [2]: no binding

B1: ER-localization sequence deficient (Δ1-38) Flag-tagged PRDX4 (domain or fragment, UniProt Q13162 39-271)
chain: ETEERPRTREEECHFYAGGQVYPGEASRVSVADHSLHLSKAKISKPAPYWEGTAVIDGEFKELKLTDYRGKYLVFFFYPLDFTFVCPTEIIAFGDRLEEFRSINTEVVACSVDSQFTHLAWINTPRRQGGLGPIRIPLLSDLTHQISKDYGVYLEDSGHTLRGLFIIDDKGILRQITLNDLPVGRSVDETLRLVQAFQYTDKHGEVCPAGWKPGSETIIPDPAGKLKYFDKLN
binding [4]: no binding

Continued, values first:

binding [3]: binds
Molecule: endogenous KEAP1 (from UniProt Q14145 1-624)

binding [5]: binds
B2: endogenous PRDX4 (protein, UniProt Q13162 38-271)
chain: WETEERPRTREEECHFYAGGQVYPGEASRVSVADHSLHLSKAKISKPAPYWEGTAVIDGEFKELKLTDYRGKYLVFFFYPLDFTFVCPTEIIAFGDRLEEFRSINTEVVACSVDSQFTHLAWINTPRRQGGLGPIRIPLLSDLTHQISKDYGVYLEDSGHTLRGLFIIDDKGILRQITLNDLPVGRSVDETLRLVQAFQYTDKHGEVCPAGWKPGSETIIPDPAGKLKYFDKLN
